In PubChem BioAssay AID651820 (National Center for Advancing Translational Sciences (NCATS), 2012):
The whole screen tested about 340,000 compounds, of which about 12,000 (3.5%) were called active. The shares of active, inactive and inconclusive entries below differ from those in the screen. The call rests on the fitted dose curve; in most records, active means well fitted inhibition curve with a large enough effect; inconclusive means small, poorly fitted or top-dose-only effect, or another doubt; inactive means no such curve, though single readings can be large or run the other way. Potencies of inconclusive entries are left out as doubtful fits.

Experiment: qHTS Assay for Inhibitors of Hepatitis C Virus (HCV)
Conditions: Huh7.5.1 HCVcc-Cre (HCVcc is cell-culture hepatitis C virus) infection, luciferase reporter, 44 h; activity change, negative = inhibition: at 41.8 µM (top of the series)
Outline: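 Cells seeded at 1,000/well and cultured 4 h, then compounds added followed by HCVcc-Cre virus (~0.5 moi). After 44 h further culture, luciferase substrate was added, plates held 15 min at room temperature, and luminescence read for 15 sec.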
On the % scale 0 is the no-effect control and ±100 the full control effect; potency means the concentration at half of the fitted maximal effect; tags describe the fitted curve by direction and shape.

Row | SMILES | Potency | activity change, negative = inhibition
1 | Cc1ccc(-c2cc(C(=O)NCCCN3CCOCC3)c3ccc(Cl)c(C)c3n2)cc1 | inconclusive [inhibitor, single point] | 
2 | COc1ccccc1OCc1nnc(SCC(=O)Nc2nnc(C3CC3)s2)n1C |  | inactive: -20.5%
3 | Cc1ccc(SCC(=O)Nc2ccc(N3CCN(C)CC3)c(F)c2)c(C)c1 | inconclusive [inhibitor, single point] | 
4 | O=C(NC(=S)Nc1cccc(Cl)c1N1CCCCC1)c1ccco1 | inconclusive [inhibitor, single point] | 
5 | O=C(Nc1nc(-c2ccc(S(=O)(=O)N3CCCCCC3)cc2)cs1)c1ccccc1 | inconclusive [inhibitor, partial curve] | 
6 | N#CC(=C=[N-])/C=C(\C(=O)c1ccccc1)[n+]1ccccc1 |  | inconclusive: -63.8% [inhibitor]
7 | Cc1csc(NC(=O)CSc2nc3nc(C)cc(C)n3n2)n1 |  | inactive: 1.99%
8 | CCC1(C)Cc2nc3[nH]c(=S)n(-c4ccc(C)cc4)c(=O)c3cc2CO1 (stereo not given) |  | inactive: 3.37%
9 | Cc1ncc([N+](=O)[O-])n1CCOC(=O)c1cc(Cl)cc(Cl)c1N | inconclusive [inhibitor, single point] | 
10 | COc1ccc(CCNC(=O)CC2(CC3=NS(=O)(=O)c4ccccc4N3)CCCC2)cc1OC | inconclusive [inhibitor, partial curve] | 
11 | S=C(NCCc1ccccc1)N1CCN(C(=S)NCCc2ccccc2)CC1 | inconclusive [inhibitor, single point] | 
12 | O=C(O)c1ccc(N2C(=O)/C(=C/c3ccc(-c4ccc([N+](=O)[O-])cc4)o3)C=C2c2ccccc2)cc1 |  | inactive: -29.6%
13 | CCCN(CCC)CCCNC(=O)c1ccc2c(Cl)c3c(nc2c1)CCC3 | inconclusive [inhibitor, full curve, poor fit] | 
14 | COc1ccc(C2(C)NC(=O)N(CC(=O)Nc3ccc(S(=O)(=O)N4CCCC4)cc3)C2=O)cc1 (stereo not given) |  | inactive: -17.9%
15 | CCOC(=O)c1c(/N=C/C2C(=O)CCCC2=O)sc2c1CCCC2 | inconclusive [inhibitor, partial curve] | 
16 | O=C(CCl)N1c2ccccc2SCC1c1ccccc1 (stereo not given) | inconclusive [inhibitor, single point] | 
17 | CC(C)(C)c1ccc(C(=O)NNC(=O)c2ccccc2Br)cc1 | inconclusive [inhibitor, single point] | 
18 | Cc1ccccc1NC(=O)NCCCN1CCN(C2CCCCC2)CC1 | inconclusive [inhibitor, partial curve] | 
19 | O=C(c1ccc(Br)o1)N1CCN(c2ccccn2)CC1 |  | inactive: -8.51%
20 | O=C(Nc1ccc(Cl)cc1Cl)C1=Cc2ccccc2OC1 |  | inactive: -3.56%
21 | CCC(C(=O)NCCCN1CCN(CCCNC(=O)C(CC)c2ccccc2)CC1)c1ccccc1 (stereo not given) | inconclusive [inhibitor, partial curve] | 
22 | O=C(c1cc2cc(Cl)ccc2oc1=O)N1CCCCCCC1 |  | inactive: 2.83%
23 | COc1ccc2[nH]c(C)c(CCNC(=S)Nc3ccc(F)cc3)c2c1 |  | inactive: -22.4%
24 | CCC(C(=O)OCC(=O)c1c(N)n(CC(C)C)c(=O)n(C)c1=O)c1ccccc1 (stereo not given) | inconclusive [inhibitor, single point] | 

Row | SMILES | Potency | activity change, negative = inhibition
25 | CCCC(=O)Nc1cccc(NC(=O)c2ccc(C)c([N+](=O)[O-])c2)c1 | inconclusive [inhibitor, partial curve] | 
26 | Cc1ccccc1OCCC(=O)Nc1cc(S(=O)(=O)N2CCOCC2)ccc1OC(C)C | inconclusive [inhibitor, partial curve] | 
27 | COC(=O)c1cc(-c2ccc(NC(C)=O)cc2)nc2ccccc12 | inconclusive [inhibitor, partial curve] | 
28 | Cc1ccc(CSc2nccc(-c3c(C)nc4ccccn34)n2)cc1 | active: 5.62 µM | 
29 | O=C(c1cc(Sc2cccc(Cl)c2)nc2ccccc12)N1CCN(c2ccccn2)CC1 | active: 10 µM | 
30 | O=C(Nc1cccc(Cl)c1)c1ccc2ncsc2c1 | inconclusive [inhibitor, single point] | 
31 | CN(c1ccccc1)c1ccc(/C=C(\C#N)c2nnc3n2CCCCC3)cc1[N+](=O)[O-] | inconclusive [inhibitor, partial curve] | 
32 | Cc1ccc(S(=O)(=O)N2CCCN(S(=O)(=O)c3ccc(C)cc3)CC2)cc1 | inconclusive [inhibitor, single point] | 
33 | COc1ccc(NC(=O)c2ccc3c(c2)OCO3)cc1S(=O)(=O)N1CCOCC1 |  | inactive: -14.8%
34 | O=C1CN(S(=O)(=O)c2cccc(Cl)c2Cl)CCN1 |  | inactive: 0.439%
35 | C=CCn1c2ccccc2c2nnc(SCCCn3c(=O)[nH]c4ccccc43)nc21 | active: 10 µM | 
36 | COc1ccc(CCNC(=O)c2cc3c(=O)n4ccccc4nc3n(Cc3ccco3)c2=N)cc1OC | active: 2.24 µM | 
37 | CC1(C)C(CSc2nc3ccccc3[nH]2)C1(Cl)Cl (stereo not given) | inconclusive [inhibitor, single point] | 
38 | O=C(N/N=C/c1ccc(-c2ccccc2[N+](=O)[O-])o1)[C@H]1C[C@@H]1c1ccccc1 | inconclusive [inhibitor, single point] | 
39 | COc1cccc(CC(=O)OC(C)C(=O)NCc2ccc3c(c2)OCO3)c1 (stereo not given) |  | inconclusive: -99.5% [inhibitor]
40 | O=C(CCc1nc2ccccc2c(=O)[nH]1)N1CCN(S(=O)(=O)c2ccc(F)cc2)CC1 |  | inactive: -8.44%
41 | COc1ccc(-c2cnc3n2CCCCC3)cc1 | inconclusive [inhibitor, single point] | 
42 | CCOc1ccccc1NC(=O)Nc1ccc(CC#N)cc1 | inconclusive [inhibitor, partial curve] | 
43 | CCN(CC)CCNC(=S)Nc1ccc2nc(N3CCOCC3)cc(C)c2c1 | inconclusive [inhibitor, full curve, poor fit] | 
44 | COc1ccc(N(C)C(=O)c2oc(=O)c3ccccc3c2-c2ccc(C)cc2)c(OC)c1 | active: 10 µM | 
45 | CCOC(=O)C1CCCN(CCC(=O)Nc2ccc(Br)c(C)c2)C1 (stereo not given) |  | inactive: 4.85%
46 | Nn1c(SCC(=O)Nc2ccc3c(c2)OCCO3)nnc1-c1ccncc1 |  | inactive: 13.2%
47 | O=C1CCC(/C=C/c2ccccc2)=NN1Cc1ccccc1Cl | inconclusive [inhibitor, partial curve] | 
48 | c1ccc(Cn2c(-c3ccccc3)nc3nc4ccccc4nc32)cc1 | inconclusive [inhibitor, single point] | 

Row | SMILES | Potency | activity change, negative = inhibition
49 | O=C(CSc1nc2ccc(Nc3nc(N4CCOCC4)nc(N4CCOCC4)n3)cc2s1)Nc1ccccc1Cl | inconclusive [inhibitor, partial curve] | 
50 | COc1ccc([N+](=O)[O-])cc1NC(=O)C(C)Sc1nc(-c2ccccc2)cs1 (stereo not given) | active: 12.6 µM | 
51 | Cc1ccc(NS(=O)(=O)c2ccc(C(=O)OCC(=O)NCC3CCCO3)cc2)cc1 (stereo not given) |  | inactive: -0.0199%
52 | CCC(Sc1ccccn1)C(=O)Nc1cccc([N+](=O)[O-])c1 (stereo not given) |  | inactive: -4.29%
53 | CCCCN(Cc1cc2ccccc2[nH]c1=O)S(=O)(=O)c1ccc(C)cc1 | inconclusive [inhibitor, single point] | 
54 | Nc1ncnc2c1cnn2-c1ccccc1 | inconclusive [inhibitor, partial curve, poor fit] | 
55 | CC(NC(=O)NC1CCCCC1)C(c1cccs1)N1CCN(C)CC1 (stereo not given) | inconclusive [inhibitor, single point] | 
56 | Cc1ccccc1C(=O)Nc1ccccc1N1CCCCC1 | inconclusive [inhibitor, partial curve] | 
57 | Cc1nn(C(=O)CCC(=O)NCc2cccc(F)c2)c2ccccc12 |  | inactive: 0.0427%
58 | CCS/C(N)=N/N=C/c1cc(C)ccc1O | inconclusive [inhibitor, full curve] | 
59 | COc1cccc(CNC(=O)CCC2CCCN(C(=O)c3cc(C4CC4)[nH]n3)C2)c1 (stereo not given) | inconclusive [inhibitor, single point] | 
60 | COc1cc(C2C(C#N)=C(C)NC3=C2C(=O)CC(C)(C)C3)ccc1OCCO (stereo not given) | inconclusive [inhibitor, single point] | 
61 | Cc1cc(-c2ccccc2)nc(N/N=C/c2cccnc2)n1 | inconclusive [inhibitor, single point] | 
62 | O=C(CN1C(=O)NC2(CCCCCC2)C1=O)N1CCN(c2ccc(F)cc2)CC1 | inconclusive [inhibitor, full curve] | 
63 | O=C(/C=C/c1ccc(F)cc1)N1CCN(c2ccccn2)CC1 |  | inactive: 12.3%
64 | COc1ccc2nc(-c3ccccc3)cc(C(=O)N3CCC3)c2c1 | inconclusive [inhibitor, single point] | 
65 | CCOC(=O)c1ccc(N2C(=O)c3n[nH]c(-c4ccco4)c3C2c2cccc([N+](=O)[O-])c2)cc1 (stereo not given) | active: 11.2 µM | 
66 | CCN1CCN(c2cc(C)c3cc(NC(=O)Cc4ccc(OC)c(OC)c4)ccc3n2)CC1 | inconclusive [inhibitor, partial curve] | 
67 | COc1cc(O)c(C(C)=O)c2c1C=CC(C)(C)O2 | inconclusive [inhibitor, partial curve, poor fit] | 
68 | COc1cccc(NC(=O)CCSc2nnc3scc(-c4ccccc4)n23)c1 | inconclusive [inhibitor, partial curve] | 
69 | CCCOc1ccc2c(CC)cc(=O)oc2c1C | inconclusive [inhibitor, partial curve] | 
70 | CC1=C(C(=O)OCCOc2ccccc2)C(c2ccc(C)o2)C2=C(CC(C)(C)CC2=O)N1 (stereo not given) | inconclusive [inhibitor, single point] | 
